Values marked as one replicate rest on one cluster of the flow cell; about a third of the high ones do not repeat.
test system: ATP; assay: switch fluorescence ratio, 500 uM ATP over buffer (Cy3 cluster intensity, sum of 5 cycles each) (fold (ratio)); higher = stronger signal-on switching upon ATP binding; sequences stand for … in TCGTCGGCAGCGTCAGATGTGTATAAGAGACAGTTTTTTTTTTTTTTTTTTTTTTTTT…TC; settings: aptamer strand: ATP DNA aptamer (quencher-CACCTGGGGGAGTATTGCGGAGGAAGG + anchor), 100 nM annealed; ATP concentration: 500 uM; one replicate
Procedure, shortened: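 Imaging in selection buffer was followed by imaging after 15 min with 500 uM ATP at 22 °C, for Cy3-labelled switching-strand clusters annealed to 100 nM quencher-labelled ATP aptamer on a modified Illumina MiSeq flow-cell. Five of these buffer/ATP cycles ran, separated by NaOH stripping and re-annealing. The fluorescence ratio per cluster is summed target-cycle over summed buffer-cycle Cy3 intensity, averaged per switch-domain sequence; clusters outside 100-1000 RFU were removed.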
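Also: ATP exposure 15 min at 22 °C before imaging.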

Sequence | switch fluorescence ratio
CCCTGTGAAT | 0.99
CCCTGTTCCA | 0.981
CCCTTCATAC | 3.66
CCCTTGGGGA | 1
CCCTTGGGTC | 1.02
CCCTTTAGAC | 1.01
CCGAAACAG | 1.7
CCGAAATTAG | 2.32
CCGAACGGTA | 4.02
CCGAAGAGGG | 1.31
CCGAATGGG | 0.985
CCGACACC | 1.95
CCGACACTGA | 3.85
CCGACGATGG | 2.92
CCGAGCCG | 1.48
CCGAGCCTTC | 4.13
CCGAGCGCAG | 1.77
CCGAGGAAAT | 1.19
CCGAGTCCGG | 1.45
CCGAGTGTTA | 1.2
CCGATAACTA | 1.01
CCGATAATTG | 1.01
CCGATGTAGA | 1.06
CCGCACCCCA | 3.16
CCGCACCGGG | 2.1
CCGCATAAAG | 2.48

Sequence | switch fluorescence ratio
CCGCCCGTGG | 1.22
CCGCCCTTCG | 1.02
CCGCCGAGGG | 1.53
CCGCCGGAGC | 2.43
CCGCCGGGCG | 0.964
CCGCGCCTGT | 1.22
CCGCGGCAGG | 1.74
CCGCGGTAGC | 1.98
CCGCGGTTA | 1.38
CCGCGTCTCG | 1.8
CCGCGTCTGG | 1.18
CCGCTAGAGC | 3.88
CCGCTAGGTC | 2.42
CCGCTCAGGG | 1.44
CCGCTCAGTA | 1.4
CCGCTCTCGC | 2.66
CCGCTGCGGT | 1.08
CCGCTGGGTT | 1.5
CCGGAACAAC | 3.22
CCGGAACCGC | 1.8
CCGGAATGTT | 1.14
CCGGACCGGG | 1.04
CCGGACGCTT | 4.57
CCGGACTTTC | 2.82
CCGGAGGAAT | 2.62
CCGGCAGGCG | 1.02

Sequence | switch fluorescence ratio
CCGGCAGT | 1.49
CCGGCGGGTG | 1.27
CCGGGAAAAA | 0.947
CCGGGACATC | 1.38
CCGGGCCCCA | 1.03
CCGGGCTGTG | 1.03
CCGGGGGTGA | 1.09
CCGGGGTTC | 1.21
CCGGGTACAC | 1.48
CCGGGTTATT | 1.02
CCGGGTTCTG | 1.09
CCGGTATCTT | 0.976
CCGGTGGTTC | 1.01
CCGGTTAATT | 1.05
CCGGTTGGTA | 0.989
CCGTAATTTA | 1.8
CCGTAGGCGG | 0.966
CCGTAGTAAT | 4.28
CCGTATAGTA | 1.08
CCGTATCTTA | 0.998
CCGTCGCGTA | 1.15
CCGTCTTCAC | 1.03
CCGTGCACTG | 1.15
CCGTGCAGGA | 1.12
CCGTGCTATG | 1.37

From the supplement of paper PMC10126150
